The other results are listed elsewhere or left out.

Assay [1] concerns HSkMC (human skeletal muscle cells). Nature of the assay: cytotoxicity call (relative viability < 0.9). Particulars: 10 µM.
Assay [2] has as its system HepG2. Nature of the assay: cytotoxicity call (relative viability < 0.9). Particulars: 10 µM.
Assay [3] deals with S. aureus RN4220. Nature of the assay: growth inhibition call (relative growth <= 0.2). Particulars: 50 µM.

Turning to `C[C@H](CO)N1C[C@H](C)[C@@H](CN(C)C(=O)c2ccc(N3CCN(C)CC3)cc2)OCc2cn(nn2)CCCC1=O`, the cytotoxicity call in assay [1] and in assay [2] was “inactive” throughout. Besides, in assay [3], the growth inhibition call is “inactive”.

For the molecule `C[C@@H]1CN([C@@H](C)CO)C(=O)c2cc(NC(=O)Cn3cnnn3)ccc2O[C@@H]1CN(C)CC1CC1`, the cytotoxicity call in assay [1] and in assay [2] was “inactive” in each case. In assay [3], the growth inhibition call was “inactive”.

Turning to `C[C@@H]1CN([C@H](C)CO)C(=O)c2cc(NC(=O)Nc3ccccc3)ccc2O[C@@H](C)CCCCO[C@H]1CN(C)S(=O)(=O)c1ccc(Cl)cc1`, the cytotoxicity call in assay [1] was “inactive”. In addition, in assay [2], the cytotoxicity call was “active”. The growth inhibition call in assay [3] was “inactive”.

Consider `CCC(=O)Nc1ccc2c(c1)C(=O)N(C)C[C@H](OC)[C@H](C)CN(C(=O)CN1CCOCC1)[C@@H](C)CO2`, for which the cytotoxicity call in assay [1] and in assay [2] was “inactive” each time. In assay [3], the growth inhibition call is “inactive”.

`O=C(C[C@@H]1C[C@H]2c3cc(NC(=O)Cc4ccncc4)ccc3O[C@H]2[C@H](CO)O1)NCc1cc(F)ccc1F`: the cytotoxicity call in assay [1] and in assay [2] was “inactive” in each case. The growth inhibition call in assay [3] is “inactive”.

As for `C[C@@H]1CCCCO[C@H](CN(C)Cc2ccc(C(=O)O)cc2)[C@H](C)CN([C@@H](C)CO)C(=O)c2cc(NS(=O)(=O)c3cccs3)ccc2O1`, the cytotoxicity call in assay [1] and in assay [2] was “inactive” in each case. Besides, in assay [3], the growth inhibition call was “inactive”.

Consider `C[C@@H]1CN([C@H](C)CO)S(=O)(=O)c2ccc(-c3ccc(C(=O)N(C)C)cc3)cc2O[C@H]1CN(C)C(=O)C1CCOCC1`, for which the cytotoxicity call in assay [1] and in assay [2] was “inactive” in each case. Moreover, the growth inhibition call in assay [3] was “inactive”.

As for `O=C(C[C@H]1CC[C@H]2[C@@H](COC[C@@H](O)CN2S(=O)(=O)c2ccccc2)O1)N[C@H]1CCN(Cc2ccccc2)C1`, the cytotoxicity call in assay [1] and in assay [2] was “inactive” throughout. The growth inhibition call in assay [3] was “inactive”.

`COC(=O)c1c2oc(c1C(=O)OC)C(=O)N[C@@H](Cc1ccccc1)Cn1cc(nn1)CNC(=O)[C@H](Cc1ccccc1)NC(=O)N[C@@H](COC(=O)NCCCCCC(=O)NO)CC2`: the cytotoxicity call in assay [1] and in assay [2] was “inactive” throughout. For the same molecule, the growth inhibition call in assay [3] is “inactive”.

As for `COc1ccccc1S(=O)(=O)N[C@@H]1C=C[C@@H](CC(=O)N2CCOCC2)O[C@H]1CO`, the cytotoxicity call in assay [1] and in assay [2] was “inactive” throughout. The growth inhibition call in assay [3] was “inactive”.

On to `CS(=O)(=O)NC[C@@H]1OC[C@@H]2CCN(C(=O)c3ccnnc3)C[C@@H]21`, for which the cytotoxicity call in assay [1] and in assay [2] was “inactive” in each case. In addition, the growth inhibition call in assay [3] is “inactive”.

In the case of `COc1ccc(S(=O)(=O)N(C)C[C@H]2Oc3ncc(C#CC4(O)CCCC4)cc3C(=O)N([C@H](C)CO)C[C@H]2C)cc1`, the cytotoxicity call in assay [1] and in assay [2] was “inactive” throughout. Also, the growth inhibition call in assay [3] is “inactive”.

`COCCOC(=O)N1C(=O)[C@@]2(c3cc(C#Cc4ccc(OC)cc4)ccc31)[C@H](C(=O)N1CCCCCCC1)[C@H]1C(=O)O[C@H](c3ccccc3)[C@H](c3ccccc3)N1[C@@H]2c1ccc(OCCO)cc1`: the cytotoxicity call in assay [1] and in assay [2] was “inactive” in each case. In assay [3], the growth inhibition call is “inactive”.

For `COc1ccc(NC(=O)Nc2cccc3c2O[C@@H](CN(C)C(=O)Nc2cccc4ccccc24)[C@@H](C)CN([C@H](C)CO)C3=O)cc1`, the cytotoxicity call in assay [1] and in assay [2] was “inactive” throughout. For the same molecule, in assay [3], the growth inhibition call was “inactive”.

Regarding `Cc1[nH]c(=O)[nH]c(=O)c1S(=O)(=O)NCc1ccccn1`, the cytotoxicity call in assay [1] and in assay [2] was “inactive” throughout. Further, in assay [3], the growth inhibition call was “inactive”.

Regarding `Cc1ccc(S(=O)(=O)N[C@H](C(=O)NCCn2cc(CCC(=O)NO)nn2)C(C)C)cc1`, the cytotoxicity call in assay [1] and in assay [2] was “inactive” throughout. Moreover, the growth inhibition call in assay [3] was “inactive”.

As to `CNc1cc(=O)n(C)c(=O)n1C`, the cytotoxicity call in assay [1] and in assay [2] was “inactive” in each case. For the same molecule, the growth inhibition call in assay [3] is “inactive”.

Consider `CCOC(=O)c1c(C)c(Cl)c(O)c(Cl)c1O`, for which the cytotoxicity call in assay [1] and in assay [2] was “inactive” in each case. Moreover, the growth inhibition call in assay [3] is “inactive”.

Regarding `CN(C)CCCNC(=O)C[C@@H]1CC[C@H]2[C@H](COc3ccc(NC(=O)c4ccc5c(c4)OCO5)cc3C(=O)N2C)O1`, the cytotoxicity call in assay [1] and in assay [2] was “inactive” each time. Also, the growth inhibition call in assay [3] was “inactive”.

Turning to `CC(C)NC(=O)N(C)C[C@@H]1OCCCC[C@H](C)Oc2ccc(NC(=O)Nc3ccc(C(F)(F)F)cc3)cc2C(=O)N([C@H](C)CO)C[C@@H]1C`, in assay [1], the cytotoxicity call was “active”. Besides, the cytotoxicity call in assay [2] is “inactive”. In addition, in assay [3], the growth inhibition call is “inactive”.

On to `Cc1noc(C)c1S(=O)(=O)Nc1ccc2c(c1)CC(=O)N([C@H](C)CO)C[C@@H](C)[C@H](CN(C)C(=O)NC1CCCCC1)O2`, for which the cytotoxicity call in assay [1] and in assay [2] was “inactive” each time. Moreover, in assay [3], the growth inhibition call was “inactive”.

In the case of `COc1cccc(S(=O)(=O)Nc2ccc3c(c2)[C@H]2C[C@@H](CC(=O)NCc4ccccc4F)O[C@@H](CO)[C@H]2O3)c1`, the cytotoxicity call in assay [1] and in assay [2] was “inactive” each time. Besides, the growth inhibition call in assay [3] was “inactive”.

With `C[C@@H]1CN([C@@H](C)CO)C(=O)c2cccc(NS(=O)(=O)c3ccc(F)cc3)c2O[C@@H]1CN(C)S(=O)(=O)c1ccc(F)cc1`, in assay [1], the cytotoxicity call was “inactive”. The cytotoxicity call in assay [2] was “active”. In addition, in assay [3], the growth inhibition call was “inactive”.

For the molecule `C[C@H](CO)N1C[C@H](C)[C@H](CN(C)Cc2ccccc2)Oc2c(NC(=O)CCCCCC(=O)Nc3ccccc3N)cccc2C1=O`, the cytotoxicity call in assay [1] and in assay [2] was “inactive” in each case. Moreover, the growth inhibition call in assay [3] is “inactive”.

Turning to `Cc1noc(C)c1S(=O)(=O)Nc1ccc2c(c1)C(=O)N([C@@H](C)CO)C[C@H](C)[C@@H](CN(C)S(=O)(=O)c1ccccc1)O2`, the cytotoxicity call in assay [1] and in assay [2] was “inactive” throughout. For the same molecule, in assay [3], the growth inhibition call is “inactive”.

With `COCC(=O)N(C)C[C@@H]1Oc2cc(C#C[C@@H](C)O)ccc2S(=O)(=O)N([C@@H](C)CO)C[C@H]1C`, the cytotoxicity call in assay [1] and in assay [2] was “inactive” each time. In assay [3], the growth inhibition call was “inactive”.

(Values after the antibiotic and cytotoxicity screens of Wong et al. (2023).)
